# Source: article PMC12040169 (PLOS Biology, 2025)
# The list shows a part of the results.
# Tested on: T1, C. trachomatis L2/434/Bu expressing GFP (CTL2-GFP)
# T1 construct: L2/434/Bu GFP intracellular growth in HeLa cells
# Set-up: species or system HeLa; C. trachomatis total inclusion area by high-content imaging, normalised to DMSO
# Details: total inclusion area; 28.5 h, 10 µM; inhibitor
# Summary of the method: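 Following bulk GFP and resorufin fluorescence reads, infected cells were fixed, Hoechst-stained and imaged on a high-content platform. Inclusion total area and number per well served as growth proxies; nuclei counts indicated host viability. MICs were derived as for the fluorescence assay.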
row,Compound,% of control remaining
1,COC(=O)c1ccc(CN2CCCC2)cc1 [CBK029023],114.168
2,O=C(CCn1c(C(F)(F)F)cc2cccnc21)N1CCCC1 [CBK284962],90.629
3,COCC(C)N(C)S(=O)(=O)c1ccc(Cl)nc1 (centres unmarked) [CBK304813],83.9428
4,COc1ccc(C(=O)O)cc1CN1CCOCC1 [CBK287029],107.774
5,N#Cc1cccc(OCC(=O)NCC2(N3CCOCC3)CCSC2)c1 (centres unmarked) [CBK305685],41.6516
6,O=[N+]([O-])c1cccc(CNc2nccnc2-c2ccccc2F)c1 [CBK037416],84.6656
7,Cc1ccc(Nc2ncc3c(n2)CCCC3=O)cc1 [CBK288143],83.5644
8,CC(=O)N1CC2(CCN(C(=O)C(C)(C)C)CC2)Nc2ccccc21 [CBK284448],51.3804
9,Clc1ccc2c(c1)OCC[C@@H]2Oc1cncc(N2CCNCC2)n1 [CBK172313G],67.8371
10,COc1ccc(OC(=O)c2cc(S(=O)(=O)N3CCOCC3)ccc2Cl)cc1 [CBK261655],104.863
11,Cn1cc(C(=O)NC(Cc2ccsc2)c2nccs2)ccc1=O (centres unmarked) [CBK285140],89.5278
12,O=C(Nc1ccc(N2CCN(C(=O)c3cccs3)CC2)cc1)c1ccc(-c2cc3ccccc3oc2=O)cc1 [CBK267340],99.7353
13,Cc1nonc1CN(C)C(=O)c1ccc2c(c1)c(C)c(C)n2C [CBK281442],91.0811
14,CCOc1cc(Br)ccc1S(=O)(=O)NCc1ccc2c(c1)OCO2 [CBK268813],121.686
15,CCc1nn(Cc2ccncc2)c(=O)c2cc3sc(C)cc3n12 [CBK284140],61.1004
16,O=C1Nc2ccccc2Oc2ccc(S(=O)(=O)N3CCOCC3)cc21 [CBK269807],90.8512
17,c1cncc(COc2nccnc2N2CCCC2)c1 [CBK115890],96.9446
18,CCc1nccn1CCCNC(=O)Nc1cccnc1 [CBK306736],73.3832
19,CCC(O)c1nc(CCSC)nn1-c1cc(=O)n(C)c2ccccc12 (centres unmarked) [CBK307711],26.0504
20,CCCN(CC1CCCO1)C(=O)c1cc2ccc(OC)cc2n1C (centres unmarked) [CBK282139],94.2907
21,COCCCNC(=O)Cn1ccc2ccnc(-c3cccs3)c21 [CBK282303],93.4854

row,Compound,% of control remaining
1,CC(=O)Nc1ccc(-c2cncc(Nc3ccc4c(c3)OC(F)(F)C(F)(F)O4)n2)cc1 [CBK065726],106.393
2,C=CCOc1ccc(CN(C)Cc2nc3cc(C(=O)O)ccc3c(=O)[nH]2)cc1 [CBK295156],116.587
3,O=c1c(O)c(-c2ccc(F)cc2)oc2ccccc12 [CBK288369],32.6169
4,CCCNC(=O)c1nn2c(C(F)(F)F)cc(-c3ccccc3)nc2c1Cl [CBK051499],83.7126
5,O=C1c2ccccc2C(=O)N1c1ccc(S(=O)(=O)NCCCO)c2ccccc12 [CBK262509],98.3595
6,O=C(CSc1ncn[nH]1)N/N=C/c1cn(-c2ccccc2)nc1-c1ccccc1 [CBK262850],49.9776
7,Fc1ccc(COc2ccccc2CNCCN2CCOCC2)cc1 [CBK278150C],112.057
8,CN(CCc1ccncc1)C(=O)c1cc2ccc(F)cc2[nH]1 [CBK283215],69.7744
9,COc1ccc2[nH]c3c(=O)n(C)cnc3c2c1 [CBK025870],82.4434
10,CN(C)C[C@@H]1Cc2cccc3cccc(c23)[C@@H]1O [CBK005877C],54.039
11,COc1ccc(CCNC(=O)N2CCCC(C(=O)O)C2)cc1OC (centres unmarked) [CBK161354],73.1534
12,COCCN(Cc1cn2cccc(C(=O)OC)c2n1)Cc1ccco1 [CBK305366],31.1468
13,Cn1c(=O)[nH]c(=O)c2c1nc(CN1CCOCC1)n2Cc1c(F)cccc1Cl [CBK270085],64.5105
14,CC(C)COc1ccc(-c2nonc2NC(=O)c2ccco2)cc1 [CBK299802],94.7767
15,Cc1cc(-c2cn3cc(C(=O)N4CCCC4)nc3c(=O)n2C)c(C)o1 [CBK307300],83.2893
16,CS(=O)(=O)Nc1cc2ccccc2c(-c2ccc3c(c2)CCO3)n1 [CBK073773],102.827
17,CCC(O)CNc1ccc(C(=O)N2CCC(N3CCOCC3)CC2)cn1 (centres unmarked) [CBK306865],49.6235
18,Cc1cc(C[C@@H]2COC[C@H]2NCc2ccc(C)c(C)c2)on1 [CBK284883],70.2783
19,CN1CCN(Cc2ccccc2[N+](=O)[O-])CC1 [CBK261524],106.728
20,CC(C)NC(=O)C[C@@H]1CCNC[C@@H]1Cc1cc(-c2ccccc2)on1 [CBK289147],114.907
